The whole screen tested about 230,000 compounds, of which about 3,600 (1.6%) were called active. Inconclusive means that the source gave no clear call. Such entries were picked first, then a sample of the others. The call rests on the fitted dose curve; in most records, active means well fitted inhibition curve with a large enough effect (not every such curve was filed as active); inconclusive means small, poorly fitted or top-dose-only effect, or another doubt; inactive means no such curve, though single readings can be large or run the other way. Potencies beside an inconclusive call are fits to weak or partial responses and may not hold up.
Target: Lysine-specific demethylase 4E (Homo sapiens) (UniProt B2RXH2)
Sequence of UniProt B2RXH2 (B2RXH2 whole entry, looked up, the tested form may be a part): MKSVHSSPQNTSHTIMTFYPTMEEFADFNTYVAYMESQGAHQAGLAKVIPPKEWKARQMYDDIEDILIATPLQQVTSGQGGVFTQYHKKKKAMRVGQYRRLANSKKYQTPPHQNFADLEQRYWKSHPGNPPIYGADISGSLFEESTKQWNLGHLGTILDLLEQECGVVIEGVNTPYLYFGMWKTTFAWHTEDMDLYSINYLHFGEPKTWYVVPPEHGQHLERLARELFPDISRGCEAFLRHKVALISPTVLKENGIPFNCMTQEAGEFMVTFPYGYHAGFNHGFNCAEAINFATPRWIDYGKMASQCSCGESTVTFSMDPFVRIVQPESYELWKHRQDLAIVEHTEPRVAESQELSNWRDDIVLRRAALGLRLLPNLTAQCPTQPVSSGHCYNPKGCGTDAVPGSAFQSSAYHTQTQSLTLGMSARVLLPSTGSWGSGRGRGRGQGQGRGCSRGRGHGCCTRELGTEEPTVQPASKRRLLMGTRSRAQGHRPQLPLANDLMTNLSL
Test: qHTS Assay for Inhibitors of Human Jumonji Domain Containing 2E (JMJD2E)
Settings: JMJD2E catalytic domain, FDH-coupled NADH fluorescence (FDH is formaldehyde dehydrogenase); series mostly up to 57.1 µM; activity change, negative = inhibition: at the top concentration
Further: nearly all actives have a fitted effect of over 50% in size.
Potency means the concentration at half of the fitted maximal effect; tags describe the fitted curve by direction and shape.
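Wherever activity change, negative = inhibition is given: 0% = wells with enzyme and -100% = buffer wells without enzyme.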

SMILES | activity change, negative = inhibition | Potency
NC(=O)N/N=C/C=C/c1ccc(F)cc1 | inactive: -0.16% | –
CCOC(=O)c1sc(=NC(=O)c2ccccc2)n(C)c1C | – | inconclusive: 31.6 µM [inhibitor, single point]
O=C(NCc1ccc2c(c1)OCO2)c1ccc(S(=O)(=O)N2CCCCC2)cc1 | inactive: -1.03% | –
COc1ccc(NC(=O)c2ccc(-c3ccc(-c4noc(C)n4)cc3C)cc2)cc1OCCN(C)C | – | inconclusive: 39.8 µM [inhibitor, single point]
O=C(Cn1cc(C(F)(F)F)ccc1=O)N/N=C/c1ccccc1O | – | active: 10 µM
CN(C)S(=O)(=O)c1ccc(N2CCCC2)c(C(=O)NCc2cccc(C(F)(F)F)c2)c1 | – | inconclusive: 35.5 µM [inhibitor, single point]
CN(C)CCCC(=O)c1ccc2c(c1)OCO2 | inactive: -22.3% | –
COc1ccc(Cl)cc1C(=O)N1CCN(c2ccccn2)CC1 | – | inconclusive: 39.8 µM [inhibitor, single point]
COc1ccc(-c2ccc3c(N)c(C(=O)NC(C)C)sc3n2)cc1OC | – | inconclusive: 31.6 µM [inhibitor, partial curve]
CC1CC(NC(=O)c2cnc3n(c2=O)CCS3)CC(C)(C)C1 (configuration not stated) | – | inconclusive: 28.2 µM [inhibitor, single point]
CC1(C)CC2(CC(c3ccccc3)c3ccc(O)cc3O2)NC(=S)N1 (configuration not stated) | inactive: 2.83% | –
COc1ccc(OC)c(C2CC(=O)N3CN(c4ccccc4F)CSC3=C2C#N)c1 (configuration not stated) | – | active: 2.24 µM
Cn1cc(CN2CCN(c3cnccn3)CC2)c(-c2cccc(Cl)c2)n1 | – | inconclusive: 28.2 µM [inhibitor, single point]
O=C(Nc1ccc2oc(-c3cccc4ccccc34)nc2c1)c1ncn[nH]1 | – | inconclusive: 8.91 µM [inhibitor, partial curve]
COc1ccc(-c2cc(C(=O)N3CCN(c4ncccn4)CC3)c3ccccc3n2)c(OC)c1 | – | inconclusive: 28.2 µM [inhibitor, partial curve]
COc1ccc(/C=N/NC(=O)c2c(C)nnn2-c2nonc2N)cc1OC | – | inconclusive: 35.5 µM [inhibitor, single point]
Cc1cccc(-n2ncc3c(NCCN4CCOCC4)ncnc32)c1 | – | inconclusive: 35.5 µM [inhibitor, partial curve]
COc1ccccc1/C=C/C(=O)N1CCOCC1 | – | inconclusive: 39.8 µM [inhibitor, single point]
O=C(Cn1c(=O)oc2ccccc21)N1CCN(c2ccc(N3CCOCC3)nn2)CC1 | – | inconclusive: 31.6 µM [inhibitor, partial curve]
O=C(Nc1nnc(-c2cccs2)o1)c1cccc(Oc2ccccc2)c1 | – | inconclusive: 25.1 µM [inhibitor, single point]
COc1ccc(NC(=O)Cn2ccc3c(OC)cccc3c2=O)cc1 | – | inconclusive: 39.8 µM [inhibitor, single point]
Cc1ccc(S(=O)(=O)CCSc2nccn2C)cc1 | – | inconclusive: 39.8 µM [inhibitor, single point]
Cc1ccc(-c2cc(N)n3nc(-c4ccc(C)cc4)cc3n2)cc1 | – | inconclusive: 28.2 µM [inhibitor, partial curve]
O=C(c1cccc(OC2CCN(C3CCCC3)CC2)c1)N1CCCCCCC1 | inactive: -2.85% | –

SMILES | activity change, negative = inhibition | Potency
CCC(C)NC(=O)CCC(=O)Nc1ccc2nc(N3CCOCC3)cc(C)c2c1 (configuration not stated) | – | inconclusive: 28.2 µM [inhibitor, partial curve]
COc1cccc(/C=N/n2c(=S)n(C)c3ccccc32)c1OC | inactive: 0.93% | –
N#Cc1cc2c(=O)n3ccccc3nc2n(-c2ccc(Cl)cc2)c1=O | – | inconclusive: 31.6 µM [inhibitor, partial curve]
O=C(c1ccco1)N1CCN(c2nc3ccccc3n3nnnc23)CC1 | – | inconclusive: 35.5 µM [inhibitor, single point]
O=S(=O)(Nc1ccccn1)c1cnc(Cl)c(Br)c1 | inactive: 3.41% | –
Cc1ccc2c(c1)nnn2C1CCN(S(=O)(=O)c2ccc(C(=O)N(C)C3CCCCC3)cc2)CC1 | inactive: 4.04% | –
CCOC(=O)c1[nH]c(COC(=O)c2ccccc2NC(=O)c2ccco2)c(C(=O)OCC)c1C | – | inconclusive: 35.5 µM [inhibitor, single point]
Cc1ccc(NC(=O)OCCN2CCN(Cc3ccccc3)CCC2=O)cc1 | inactive: -2.12% | –
COc1ccc(N/C=C\C(=O)c2ccc3c(c2)OCO3)cc1OC | inactive: -15.8% | –
CCCCCC(=O)c1ccc(O)cc1O | inactive: -2.19% | –
CCCNC(=O)c1ccc2c(=O)c(O)c(-c3ccc(F)cc3)[nH]c2c1 | – | inconclusive: 35.5 µM [inhibitor, single point]
O=C(NCCSc1c[nH]c2ccccc12)c1ccc2c(c1)OCO2 | – | inconclusive: 2.24 µM [inhibitor, full curve, poor fit]
COc1ccc(-c2nc(C(N)=O)c3[nH]c(=O)n(-c4ccccc4OC)c3n2)c(OC)c1 | – | inconclusive: 39.8 µM [inhibitor, single point]
C=C(C)C(=O)Nc1cccc(C2=NOC3(C2)C[C@H](C(N)=O)N(C(=O)c2ccccc2)C3)c1 (some centres not stated) | inactive: 2.18% | –
COc1cc2c(cc1OC)CN(Cc1cc(=O)n3cc(C)ccc3n1)CC2 | – | inconclusive: 31.6 µM [inhibitor, partial curve]
COc1ccc2c(c1)-c1nc(NC(=O)c3ccco3)sc1CC2 | – | inconclusive: 31.6 µM [inhibitor, single point]
COc1ccc(-c2cn3cccnc3n2)cc1F | – | inconclusive: 31.6 µM [inhibitor, partial curve]
COc1ccc(-c2cc(C(F)(F)F)c(C#N)c(SCC(=O)Nc3ccc(C)cc3)n2)cc1 | – | inconclusive: 5.62 µM [inhibitor, single point]
O=C1N=C(N2CCOCC2)S/C1=C/c1cccs1 | inactive: -6.72% | –
O=C(Nc1ccc(F)cc1)N(Cc1cccs1)Cc1cc2cc3c(cc2[nH]c1=O)OCO3 | – | inconclusive: 28.2 µM [inhibitor, partial curve]
O=C(Nc1ccccn1)c1ccc2ccccc2n1 | – | inconclusive: 35.5 µM [inhibitor, single point]
CCCCN1Cc2c(nc3cc(-c4ccco4)[nH]n3c2=O)C1=O | – | inconclusive: 35.5 µM [inhibitor, partial curve]
CC(/C=N/N1CCN(c2ccc(C)cc2)CC1)=C\c1ccccc1 | inactive: -1.45% | –
CCCc1cc(NCc2ccccn2)n2c(nc3ccccc32)c1C#N | – | inconclusive: 25.1 µM [inhibitor, partial curve]

SMILES | activity change, negative = inhibition | Potency
O=C(Nc1ccccc1C(=O)Nc1nnc(C(F)(F)F)s1)c1ccccc1 | – | inconclusive: 35.5 µM [inhibitor, single point]
Cc1ccc(-c2c(C)sc(=NC(=O)c3ccco3)n2C)cc1 | – | inconclusive: 25.1 µM [inhibitor, single point]
CC(C)(C)Nc1c(-c2ccc(O)cc2)nc2ccc(Cl)cn12 | inactive: -1.62% | –
CCOC(=O)N1CCC(N2CCN(S(=O)(=O)c3ccc(C)cc3)CC2)CC1 | – | inconclusive: 35.5 µM [inhibitor, single point]
Cc1ccc(-c2nc3ccccc3n2C)o1 | – | inconclusive: 28.2 µM [inhibitor, partial curve]
C#Cc1ccc(C(=O)Nc2cc(C(N)=O)ccc2N2CCOCC2)cc1 | – | inconclusive: 39.8 µM [inhibitor, single point]
CCN(Cc1cc2ccc(C)cc2[nH]c1=O)C(=O)c1cccnc1 | – | inconclusive: 28.2 µM [inhibitor, single point]
O=C(COc1nc2ccccc2nc1N1CCOCC1)N1CCc2ccccc21 | – | inconclusive: 6.31 µM [inhibitor, single point]
N#CCSc1nc2c(cc1C#N)CCCC2 | – | inconclusive: 25.1 µM [inhibitor, partial curve]
CC(=O)c1cccc(NC(=O)C23CC4CC(C2)CC(n2cncn2)(C4)C3)c1 | inactive: 12.1% | –
CN(C)C(=O)c1ccc(-c2ccc3ncnc(NC4CCNCC4)c3c2)cc1 | – | inconclusive: 31.6 µM [inhibitor, partial curve]
CC(=O)C1=C(C)OC(N)=C(C#N)C1c1ccco1 (configuration not stated) | – | inconclusive: 31.6 µM [inhibitor, single point]
Cc1cccc(C(=O)N[C@H](C(=O)Nc2ccc(S(=O)(=O)NC3=NCCCCC3)cc2)C(C)C)c1 | inactive: -8.32% | –
CCCCn1c(/C=N/Nc2nc3ccccc3[nH]2)nc2ccccc21 | – | inconclusive: 39.8 µM [inhibitor, single point]
Cc1ccc(C2C=C(c3ccc4c(c3)OCO4)Nc3ncnn32)cc1 (configuration not stated) | – | inconclusive: 35.5 µM [inhibitor, single point]
CC1CC(C)CN(CCCSc2ccccc2)C1 (configuration not stated) | inactive: -7.48% | –
CCCCn1c(=O)[nH]c(=O)c2c1nc(-c1ccccc1F)n2Cc1ccccc1 | – | inconclusive: 20 µM [inhibitor, partial curve]
Cc1nc2c(C#N)c[nH]n2c(=O)c1Cc1ccccc1 | – | inconclusive: 25.1 µM [inhibitor, single point]
N#Cc1cccc(CS(=O)(=O)c2nnnn2C2CCCCC2)c1 | inactive: -5.89% | –
O=C(NCCN1CCN(c2ccccc2)CC1)c1ccc(NC(=O)C2CCCO2)cc1 (configuration not stated) | inactive: 8.39% | –
CN(C)c1ccc(C(=O)NN2C(=O)c3ccccc3C2=O)cc1 | inactive: 9.54% | –
COc1ccc(OCCNC(=S)Nc2cccc3ccccc23)cc1 | inactive: -12.7% | –
CCOC(=O)C1=C(CC)NC2=C(C(=O)CCC2)C1c1ccc(OC)c(OC)c1 (configuration not stated) | – | inconclusive: 25.1 µM [inhibitor, partial curve]
Cc1[nH]n(-c2ccccc2)c(=O)c1C(C[N+](=O)[O-])c1ccc(Cl)cc1 (configuration not stated) | – | inconclusive: 12.6 µM [inhibitor, partial curve, poor fit]

Source: PubChem BioAssay AID2147 (National Center for Advancing Translational Sciences (NCATS), 2009)
